Data: a collection of fitness landscapes (doi:10.1126/science.1257360)
This is one part of the list.

B1: PhoQ; a variant is named by its letters at X, in order, P23837 (parent)
chain: MKKLLRLFFPLSLRVRFLLATAAVVLVLSLAYGMVALIGYSVSFDKTTFRLLRGESNLFYTLAKWENNKLHVELPENIDKQSPTMTLIYDENGQLLWAQRDVPWLMKMIQPDWLKSNGFHEIEADVNDTSLLLSGDHSIQQQLQEVREDDDDAEMTHSVAVNVYPATSRMPKLTIVVVDTIPVELKSSYMVWSWFIYVLSANLLLVIPLLWVAAWWSLRPIEALAKEVRELEEHNRELLNPATTRELTSLVRNLNRLLKSERERYDKYRTTLTDLTHSLKTPLXXLQXXLRSLRSEKMSVSDAEPVMLEQISRISQQIGYYLHRASMRGGTLLSRELHPVAPLLDNLTSALNKVYQRKGVNISLDISPEISFVGEQNDFVEVMGNVLDNACKYCLEFVEISARQTDEHLYIVVEDDGPGIPLSKREVIFDRGQRVDTLRPGQGVGLAVAREITEQYEGKIVAGESMLGGARMEVIFGRQHSAPKDE

Variants of: B1
Assay: enrichment ratio after two sorts for PhoP signalling (ratio (wild type AVST 3.29)); higher = more functional
Conditions: with PhoP (E. coli)

Row | Variant | enrichment ratio
1 | RHYW | ≤ 0.25
2 | VGRQ | ≤ 0.25
3 | TMPW | ≤ 0.25
4 | KDRQ | ≤ 0.25
5 | DDHA | ≤ 0.25
6 | YHEH | ≤ 0.25
7 | GTDC | ≤ 0.25
8 | KAEF | ≤ 0.25
9 | PPQG | ≤ 0.25
10 | DQSK | ≤ 0.25
11 | NPRF | ≤ 0.25
12 | WAFS | ≤ 0.25
13 | KSDM | ≤ 0.25
14 | FTRT | ≤ 0.25
15 | IKSI | ≤ 0.25
16 | VNIP | ≤ 0.25
17 | EHPT | ≤ 0.25
18 | CTLT | ≤ 0.25
19 | SNRA | ≤ 0.25
20 | LPEH | ≤ 0.25
21 | DCWA | ≤ 0.25
22 | HITN | ≤ 0.25
23 | LCWR | ≤ 0.25
24 | LADR | ≤ 0.25

Row | Variant | enrichment ratio
25 | HILV | ≤ 0.25
26 | MGMR | ≤ 0.25
27 | HEKR | ≤ 0.25
28 | QHVC | ≤ 0.25
29 | DWCK | ≤ 0.25
30 | RDGT | ≤ 0.25
31 | TYHR | ≤ 0.25
32 | ARKC | ≤ 0.25
33 | SFTK | ≤ 0.25
34 | SQKT | ≤ 0.25
35 | RNKP | ≤ 0.25
36 | YEIH | ≤ 0.25
37 | DGHT | ≤ 0.25
38 | MIPW | ≤ 0.25
39 | WTGM | ≤ 0.25
40 | DITA | ≤ 0.25
41 | DQVL | ≤ 0.25
42 | IDDT | ≤ 0.25
43 | TDVM | 4.33
44 | MLGW | ≤ 0.25
45 | DYLA | ≤ 0.25
46 | TTPK | ≤ 0.25
47 | LCSA | ≤ 0.25
48 | PRWI | ≤ 0.25

Row | Variant | enrichment ratio
49 | VSQG | ≤ 0.25
50 | YEWG | ≤ 0.25
51 | FFRP | ≤ 0.25
52 | PLTF | ≤ 0.25
53 | QFNE | ≤ 0.25
54 | TFSS | 11.4
55 | ACPR | ≤ 0.25
56 | WLAI | ≤ 0.25
57 | RIGM | ≤ 0.25
58 | NRDL | ≤ 0.25
59 | FLED | ≤ 0.25
60 | EVFD | ≤ 0.25
61 | RANI | ≤ 0.25
62 | FSVW | ≤ 0.25
63 | TIMI | 2.5
64 | YAIG | ≤ 0.25
65 | MGNL | ≤ 0.25
66 | PNNV | ≤ 0.25
67 | HDEK | ≤ 0.25
68 | TAIP | ≤ 0.25
69 | MWSR | ≤ 0.25
70 | LKCF | ≤ 0.25
71 | HFQE | ≤ 0.25
72 | KMQC | ≤ 0.25

Row | Variant | enrichment ratio
73 | DVKS | ≤ 0.25
74 | SHSI | ≤ 0.25
75 | YWAW | ≤ 0.25
76 | PTTL | ≤ 0.25
77 | KDRC | ≤ 0.25
78 | DYYN | ≤ 0.25
79 | TMHC | ≤ 0.25
80 | HFYD | ≤ 0.25
81 | SLIL | ≤ 0.25
82 | DWDK | ≤ 0.25
83 | SPYS | ≤ 0.25
84 | VIPV | ≤ 0.25
85 | LRSQ | ≤ 0.25
86 | KHCV | ≤ 0.25
87 | KQDW | ≤ 0.25
88 | NEES | ≤ 0.25
89 | SIRS | 0.256
90 | YVTW | ≤ 0.25
91 | PGRI | ≤ 0.25
92 | KEFF | ≤ 0.25
93 | FDHC | ≤ 0.25
94 | YCAW | ≤ 0.25
95 | YFKL | ≤ 0.25
96 | EKFK | ≤ 0.25

Row | Variant | enrichment ratio
97 | VWFY | ≤ 0.25
98 | RCVP | ≤ 0.25
99 | VAAS | ≤ 0.25
100 | MMPW | ≤ 0.25
101 | VPAE | ≤ 0.25
102 | YDQP | ≤ 0.25
103 | DGFW | ≤ 0.25
104 | TDLR | 2.69
105 | GRDM | ≤ 0.25
106 | HKKL | ≤ 0.25
107 | SAAW | 0.78
108 | YYMA | ≤ 0.25
109 | KLYR | ≤ 0.25
110 | EIGG | ≤ 0.25
111 | FHGI | ≤ 0.25
112 | NWIT | ≤ 0.25
113 | ALTF | 9.85
114 | LIAQ | ≤ 0.25
115 | TRGI | ≤ 0.25
116 | LTPF | ≤ 0.25
117 | MCCL | 6.65
118 | HMGR | ≤ 0.25
119 | KVYS | ≤ 0.25
120 | IPTG | ≤ 0.25

Row | Variant | enrichment ratio
121 | LFQT | ≤ 0.25
122 | PHVH | ≤ 0.25
123 | FQWQ | ≤ 0.25
124 | AGSP | ≤ 0.25
125 | VFDI | ≤ 0.25
126 | AIVH | 15
127 | YETP | ≤ 0.25
128 | ANHY | ≤ 0.25
129 | FWDD | ≤ 0.25
130 | FHSI | ≤ 0.25
131 | IKFR | ≤ 0.25
132 | VFWH | ≤ 0.25
133 | SPIY | ≤ 0.25
134 | VFSD | ≤ 0.25
135 | GMLL | 10.2
136 | QSMN | ≤ 0.25
137 | VGMH | ≤ 0.25
138 | PDCD | ≤ 0.25
139 | QFWI | ≤ 0.25
140 | GEIH | 6.91
141 | QFDD | ≤ 0.25
142 | VYIL | ≤ 0.25
143 | TSLH | 9.91
144 | GTRW | ≤ 0.25

Row | Variant | enrichment ratio
145 | PVQH | ≤ 0.25
146 | ASYF | ≤ 0.25
147 | TIVF | ≤ 0.25
148 | YARC | ≤ 0.25
149 | MNHI | ≤ 0.25
150 | FDTM | ≤ 0.25
151 | YYFT | ≤ 0.25
152 | PNFS | ≤ 0.25
153 | AKFW | ≤ 0.25
154 | AHEH | ≤ 0.25
155 | TTGN | 21.9
156 | KFFI | ≤ 0.25
157 | QMPQ | ≤ 0.25
158 | VSVP | ≤ 0.25
159 | PHCV | ≤ 0.25
160 | FVLS | 0.344
161 | WRFA | ≤ 0.25
162 | FFPG | ≤ 0.25
163 | ITAI | ≤ 0.25
164 | VCHL | ≤ 0.25
165 | YMHA | ≤ 0.25
166 | WFAS | ≤ 0.25
167 | DHKW | ≤ 0.25
168 | MCRV | ≤ 0.25

Row | Variant | enrichment ratio
169 | QDWL | ≤ 0.25
170 | LQYG | ≤ 0.25
171 | RRVK | ≤ 0.25
172 | TMKR | ≤ 0.25
173 | GWDS | ≤ 0.25
174 | ERSC | ≤ 0.25
175 | IMKF | ≤ 0.25
176 | YWEV | ≤ 0.25
177 | YYLP | ≤ 0.25
178 | DMRA | ≤ 0.25
179 | LEHV | ≤ 0.25
180 | MVLI | 1.96
181 | ASCG | 18.9
182 | YPFS | ≤ 0.25
183 | ERRE | ≤ 0.25
184 | RVCS | ≤ 0.25
185 | DPTN | ≤ 0.25
186 | GPAD | ≤ 0.25
187 | ENHR | ≤ 0.25
188 | PFLC | ≤ 0.25
189 | MFII | ≤ 0.25
190 | HQQH | ≤ 0.25
191 | IKKC | ≤ 0.25
192 | DDSM | ≤ 0.25

Row | Variant | enrichment ratio
193 | HQRR | ≤ 0.25
194 | FQLG | 16.7
195 | YQSI | ≤ 0.25
196 | QVPI | ≤ 0.25
197 | EPTF | ≤ 0.25
198 | AFDF | ≤ 0.25
199 | PVEF | ≤ 0.25
200 | RNIP | ≤ 0.25
201 | LSQF | ≤ 0.25
202 | DIAL | ≤ 0.25
203 | YVRC | ≤ 0.25
204 | DPIY | ≤ 0.25
205 | KGVN | ≤ 0.25
206 | KKRD | ≤ 0.25
207 | QGYQ | 13.9
208 | GKGT | ≤ 0.25
209 | GNWI | ≤ 0.25
210 | VAFH | ≤ 0.25
211 | PHFG | ≤ 0.25
212 | QMWR | ≤ 0.25
213 | MAGE | ≤ 0.25
214 | GFSQ | ≤ 0.25
215 | THWC | ≤ 0.25
216 | DGCR | ≤ 0.25

Row | Variant | enrichment ratio
217 | TGVT | 1.96
218 | SEWG | 17.3
219 | YGQH | ≤ 0.25
220 | FKPD | ≤ 0.25
221 | YMRK | ≤ 0.25
222 | SCYY | 0.284
223 | QQGW | ≤ 0.25
224 | FGYW | ≤ 0.25
225 | KQQW | ≤ 0.25
226 | NNIR | ≤ 0.25
227 | DDLR | ≤ 0.25
228 | EPRR | ≤ 0.25
229 | KSQF | ≤ 0.25
230 | RVCY | ≤ 0.25
231 | YSMP | ≤ 0.25
232 | GEYH | ≤ 0.25
233 | VYNT | ≤ 0.25
234 | LWHL | 0.31
235 | IVTT | ≤ 0.25
236 | SGLV | 17.9
237 | VDMK | ≤ 0.25
238 | KICG | ≤ 0.25
239 | MPSF | ≤ 0.25
240 | GKKH | ≤ 0.25

Row | Variant | enrichment ratio
241 | RYEQ | ≤ 0.25
242 | YFVS | ≤ 0.25
243 | KFYL | ≤ 0.25
244 | SWQI | ≤ 0.25
245 | MSIN | ≤ 0.25
246 | NMPE | ≤ 0.25
247 | RPAW | ≤ 0.25
248 | NGVV | ≤ 0.25
249 | YEEL | ≤ 0.25
250 | IETE | ≤ 0.25
251 | FWVH | ≤ 0.25
252 | NLID | ≤ 0.25
253 | GDTM | 4.42
254 | FHCW | ≤ 0.25
255 | TACI | 22.6
256 | QSFD | ≤ 0.25
257 | HMNI | ≤ 0.25
258 | QNFD | ≤ 0.25
259 | IMYR | ≤ 0.25
260 | DKWC | ≤ 0.25
261 | TSFN | 1.62
262 | PPIS | ≤ 0.25
263 | DLHW | ≤ 0.25
264 | WALQ | 4.15

Row | Variant | enrichment ratio
265 | SRAC | ≤ 0.25
266 | RDFP | ≤ 0.25
267 | RRMD | ≤ 0.25
268 | VKKF | ≤ 0.25
269 | KEMV | ≤ 0.25
270 | ISCS | ≤ 0.25
271 | DLDF | ≤ 0.25
272 | ISRT | ≤ 0.25
273 | TTQM | 12.5
274 | QVLP | ≤ 0.25
275 | HKQP | ≤ 0.25
276 | QFSR | ≤ 0.25
277 | FPFM | ≤ 0.25
278 | PGQT | ≤ 0.25
279 | TRWF | ≤ 0.25
280 | FDPC | ≤ 0.25
281 | WLFR | ≤ 0.25
282 | FNDG | ≤ 0.25
283 | RGAL | 0.701
284 | TFCI | 1.31
285 | AKDA | ≤ 0.25
286 | DGES | ≤ 0.25
287 | FDNA | ≤ 0.25
288 | HGYP | 2.24

Row | Variant | enrichment ratio
289 | YRVM | ≤ 0.25
290 | HSKV | ≤ 0.25
291 | DIWD | ≤ 0.25
292 | QCNP | ≤ 0.25
293 | AKMM | 30.4
294 | IDME | ≤ 0.25
295 | SFRR | ≤ 0.25
296 | MFEW | ≤ 0.25
297 | KQMV | ≤ 0.25
298 | PIFT | ≤ 0.25
299 | PYVI | ≤ 0.25
300 | NAWR | ≤ 0.25
301 | WECY | ≤ 0.25
302 | PPYE | ≤ 0.25
303 | PQSI | ≤ 0.25
304 | DKNP | ≤ 0.25
305 | SWAN | ≤ 0.25
306 | LEEL | ≤ 0.25
